From PubChem BioAssay AID686970 (National Center for Advancing Translational Sciences (NCATS), 2013)
The whole screen tested about 360,000 compounds, of which about 6,000 (1.7%) were called active. The inconclusive results got no clear call from the source; some entries with a clear call stand among them for comparison. Calls follow the shape of the dose curve; as a rule, active = well fitted cell-killing curve with a large enough effect; inconclusive = small, poorly fitted or top-dose-only effect, or effect the other way; inactive = flat fitted curve, though single readings scatter. No potency is given beside an inconclusive call; the fits are too rough.

Assay: qHTS for induction of synthetic lethality in tumor cells producing 2HG: qHTS for the HT-1080-NT fibrosarcoma cell line; also: nearly all actives have a fitted effect of over 55% in size
Settings: HT-1080-NT fibrosarcoma viability, CellTiter-Glo ATP luminescence, 48 h; activity, negative = less viability: at 46.1 µM (top of the series) unless noted
Source text: Unbiased genomic sequencing for 22 glioma genomes found recurrent mutation of IDH1 on chromosome 2q33, a gene encoding the cytosolic isoform of IDH1 associated with the tricarboxylic acid cycle (TCA) that catalyzes the oxidative decarboxylation of isocitrate, yielding alpha-ketoglutarate and CO2 via NADP+ to NADPH conversion. Subsequent studies confirmed the recurrent IDH mutations in up to 70% of secondary gliomas and in 10% of AML cases. In addition, the somatic mutation of cancer-associated IDH1 is a point mutation resulting in various amino-acid substituents at Arginine132 (IDH1 R132), a key residue found in the enzyme's active site that when mutated, results in the loss-of-function in metabolizing isocitrate but confers a gain-of-function to produce the oncometabolite 2-hydroxyglutarate (2HG). This in effect defines IDH1 as an oncogene and provides an extraordinary opportunity to discover chemical probes against mutant IDH1 that may translate into much needed new therapies for glioma and AML patients.
This assay aims to perform a synthetic lethal screen for chemical probes specific for 2HG-producing tumor cells using matched paired cell lines (1) HT-1080-NT fibrosarcoma cell line that overproduces 2HG and (2) HT-1080-IDH1KD cell line which has IDH1 expression knocked-down. Desirable compounds are toxic to the NT fibrosarcoma cells but not to the IDH1KD cell line. The data in this AID corresponds to the results of the qHTS against the HT-1080-NT fibrosarcoma cell line.
[1] Dang L, Jin S, Su SM. IDH mutations in glioma and acute myeloid leukemia. Trends of Mol Med. 2010; 16(9): 387-97.
[2] Dang L et al. Cancer-associated IDH1 mutations produce 2-hydroxyglutarate. Nature. 2010; 465(7300):966.
NIH Molecular Libraries Probe Production Centers Network [MLPCN]
NIH Chemical Genomics Center [NCGC]
Assay Submitter (PI): Lenny Dang Ph.D., Agios Pharmaceuticals
Suspensions of trypsinized HT-1080-NT cells were dispensed into white, tissue culture-treated, solid 1536-well plates at 5uL/well (750 cells/well final concentration) in RPMI medium supplemented with 5% FBS. Plates were incubated at 37 degrees C for 2 hours, after which 23 nL of compounds or DMSO were delivered to each well using a pin tool. Plates were then incubated at 37 degrees C for an additional 48 hours. CellTiter-Glo viability reagent (Promega) was dispensed into wells (2.5uL/well) and incubated at room temperature for 10 minutes. The plates were measured on a PerkinElmer ViewLux plate reader for luminescent signal (clear filter, 1 sec exp). DMSO-treated control wells and media-only (no cells) control wells were used to normalize %Activity of identified toxic compounds; DMSO-treated wells corresponded to 0%Activity (100% viability), while media-only controls were used to normalize 100%Activity (0% viability).
Concentration-response curves were fitted to the signals arising from the resulting luminescence. The concentration-effect curves were then classified based on curve quality (r2), response magnitude and degree of measured activity, and compounds were subsequently categorized based on their curve class.
Potency is read from the fitted curve at half-maximal effect; tags tell the direction and shape of the fitted curve.

SMILES	Potency	activity, negative = less viability
COc1cc(NC(=O)CSCC(=O)Nc2cc(OC)cc(OC)c2)cc(OC)c1	inactive	
CC(C)N(CCNC(=O)c1ccc(CS(=O)(=O)c2c(Cl)cccc2Cl)o1)Cc1ccccc1	inactive	
COc1ccc(S(=O)(=O)N(C)C)cc1NC(=O)COC(=O)c1nn(C)c(=O)c2ccccc12		inconclusive: 31.4%
COc1cc2nc(N(C)C)nc(NC3CCN(C)CC3)c2cc1OC	inconclusive [cytotoxic, single point]	
COC(=O)Cc1c(C)c2ccc(O)c(CN3CCCC(C)C3)c2oc1=O (stereo unspecified)	inactive	
Cc1ccc(O)c(-c2cc(-c3cccc(Br)c3)n[nH]2)c1	inconclusive [cytotoxic, single point]	
C/C(=N\NC(=O)c1cc(C)nc2ccccc12)c1ccccn1	inconclusive [cytotoxic, full curve]	
COc1ccc(OC)c(C(C)NC(=O)c2ccco2)c1 (stereo unspecified)	inconclusive [cytotoxic, single point]	
CCOC(=O)c1c(C)oc2ccc(NS(=O)(=O)c3ccc(C(=O)O)cc3)cc12	inactive	
Cc1ccc(C)c(C(Nc2ccccc2)c2ccc3ccc(C)nc3c2O)c1 (stereo unspecified)	inconclusive [cytotoxic, partial curve]	
NC(=O)CSc1nc2cc(S(=O)(=O)N3CCOCC3)ccc2o1	inactive	
O=C(Nc1ncc(Cc2cccc([N+](=O)[O-])c2)s1)c1ccco1	inconclusive [cytotoxic, partial curve]	
O=C(Nc1ccc2ccccc2c1)Nc1ccc2snnc2c1	inconclusive [cytotoxic, single point]	
CCC1Nc2ncnc(N3CCCCC3)c2N(Cc2ccc(OC)cc2)C1=O (stereo unspecified)	inconclusive [rising, single point]	
COCCN(CCOC)S(=O)(=O)c1ccc(C(=O)Nc2nnc(C)o2)cc1	inactive	
O=C1/C(=C\c2cc([N+](=O)[O-])ccc2O)SC(=S)N1Cc1ccc(Cl)cc1	active: 23.1 µM	
O=C(O)CSc1ncnc2nc[nH]c12	inactive	
Clc1ccc2nc(CN3CCCCC3)cn2c1	inactive	
COCCCn1c(SCc2nc3ccccc3c(=O)[nH]2)nc2ccccc2c1=O	inconclusive [cytotoxic, partial curve]	
Cc1cccc(C(=O)OCC(=O)c2csc(N3CCCCC3)n2)c1[N+](=O)[O-]	inactive	
COC(=O)c1sc(-c2ccc(Cl)cc2)cc1NC(=O)/C=C/C(=O)O	inconclusive [cytotoxic, single point]	
O=C1N[C@@H](c2ccccc2)COC(=O)[C@H](Cc2ccc(F)cc2)CC/C=C/C[C@@H]1CC(=O)N(CCO)Cc1ccccc1	inconclusive [cytotoxic, partial curve]	
CCOC(=O)c1cc(-c2ccc(F)cc2)n(CCC(=O)NC2CCN(Cc3ccccc3)CC2)c1C	inconclusive [cytotoxic, single point]	

SMILES	Potency	activity, negative = less viability
C/C(=N\N=C(N)N)c1cccc(Cl)c1	inconclusive [cytotoxic, single point]	
COc1ccccc1CCNC(=O)CCn1c(=O)c2cccn2c2ccc(F)cc21	inactive	
N#Cc1c(-c2ccccc2)cc(-c2ccccc2)nc1SCCC(=O)O	inconclusive [cytotoxic, single point]	
CN1CCN(c2nc3cc(C(F)(F)F)ccc3n3cccc23)CC1	inconclusive [cytotoxic, single point]	
Cc1ccc(C(=O)N2CCCc3ccccc32)c(F)c1F	inactive	
CN(CC(=O)Nc1ccccc1Cl)C(=O)c1cccc(S(=O)(=O)N2CCN(Cc3ccccc3)CC2)c1	active: 20.6 µM	
CCOc1ccc(-c2nc(C#N)c(NCC(C)C)o2)cc1	inconclusive [cytotoxic, single point]	
Cc1ccc(C(=O)NC(=S)Nc2ccccc2N2CCOCC2)cc1C		inconclusive: -30.2% [cytotoxic]
O=C(Nc1ccc(Br)c(C(F)(F)F)c1)c1ccc(C(F)(F)F)cc1	active: 20.6 µM	
COc1ccc(-c2nn(C)c3sc(C(=O)NCc4ccco4)cc23)cc1OC	inconclusive [rising, single point]	
COc1cccc(N2CCN(CC(=O)c3c(C)[nH]c4ccccc34)CC2)c1	inconclusive [cytotoxic, single point]	
O=C(COc1ccccc1)Nc1cccc(-c2nc3cc4ccccc4cc3[nH]2)c1	inconclusive [cytotoxic, single point]	
O=C(O)/C=C/c1ccc(Cn2ccnc2)cc1	inconclusive [rising, single point]	
CCOc1cccc(NC(=O)C2CC(=O)N(C)C(=Nc3ccccc3)S2)c1 (stereo unspecified)	inconclusive [cytotoxic, single point]	
CN(Cc1cccc(Cl)c1Cl)C(=O)c1cccc(S(=O)(=O)N2CCN(Cc3ccccc3)CC2)c1	inactive	
Cc1ccc(NC(=O)c2cccs2)cc1NC(=O)c1cccc(F)c1	inactive	
CCCCCCOC(=O)C(C#N)c1nc2ccccc2nc1N1CCN(CC)CC1 (stereo unspecified)	active: 16.4 µM	
COc1ccc(N/N=C(/N=Nc2nc(C)cc(=O)[nH]2)c2ccccc2)cc1	inconclusive [cytotoxic, partial curve]	
CC1(C)OC(=O)C2=C(C[C@@H](C3CCCCC3)O[C@H]2c2ccccc2)O1	inconclusive [cytotoxic, single point]	
CN(C)c1nnnn1-c1ccc(Oc2ncc(C(F)(F)F)cc2Cl)cc1	inactive	
COc1ccc(-c2c(N)nnc3c2[nH]c2ccccc23)cc1OC	inactive	
COC(=O)c1ccc(C2N=C(c3cccs3)CC(c3ccccc3O)N2)cc1 (stereo unspecified)	inconclusive [cytotoxic, single point]	
C[C@H](CO)N1C[C@H](C)[C@@H](CN(C)S(=O)(=O)c2ccc(F)cc2)Oc2ccc(NC(=O)Nc3ccc(C(F)(F)F)cc3)cc2C1=O	inconclusive [cytotoxic, single point]	
